The supplement of paper PMC11417369
The list shows a part of the results.

What follows are sequences tested on PF3D7_0420300 AP2 domain 1 (GST-tagged) (assay: gcPBM binding intensity (ln(normalized median fluorescence intensity)); higher = stronger DNA binding).
Outline: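 In this array assay, P. falciparum DNA-binding domains with a GST tag, expressed in E. coli, were applied for 1 h to primer-extended double-stranded 36-bp intergenic genomic probes and negative controls on an Agilent 4 × 180k array. Bound protein was visualised with Alexa488 anti-GST antibody at 488 nm. Binding intensity is the highest Masliner-normalised natural-log median intensity across replicate spots of either probe orientation.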

Sequence	gcPBM binding intensity (ln)
AATATTTAAAACATATGTACTGAAAAACAATTGGAC [XGTACX_site6360]	9.61
AACAAGTTGCATGGTGCACACATGTATATATATCTA [CACACA_site2548]	9.44
AAAATGTATGTAGTCTGTACAAATACTCTATAAATA [XGTACX_site6475]	9.22
TACAATTTTACTCATAAACACACATATATATGTTAT [CACACA_site9031]	9.35
TATATATATATATATAGTACGCACACATAGTTGCAA [XGTACX_site5875]	9.49
TATTTTTTATGATTAACACACACACTAATAAAAAAA [CACACA_site9370]	9.77
ATTCTTACTAATATCGCACACACATATGTAGACGGG [CACACA_site88]	9.59
AATGAATATATTTATTGTACATATATGAATATTGCA [XGTACX_site8689]	9.2
ATTTTTTTATTTTTGTGTACTTATAAGAATATTAAT [XGTACX_site4850]	9.33
AAAAAAAAAAAAAAAAGTACAAAAAGGAGAAAGATA [XGTACX_site7862]	9.48
AATATATAAATTGACACACACATATATACCTATATA [CACACA_site4803]	9.86
AATATAAACACAAACACACACATATAGATTTATATA [CACACA_site6263]	9.94
CACAATGGTTTATATACACACTGTTGCAAATTCTTC [CACACA_site5659]	9.45
TTATACCTATATTTAACACACATTTGATAAAGTGCC [CACACA_site6732]	9.33
AAAAAATTTGTTTATTGTACAGAAAGAATTATTATA [XGTACX_site6549]	8.95
TTGTAGGTAAATATGTGTACGCATTATTATTCTTAA [XGTACX_site216]	9.26
GAGAGAGAAATAAAAAGTACATACATATATATACAT [XGTACX_site2267]	9.29
AAAAAAAACAGACACATACACACAAAAATGTTATAA [CACACA_site82]	9.86
ACCATTTTTATGTATAAACACACGTACCCGCACTAA [CACACA_site1604]	9.36
TGGAGATTTTTAAAGACACACAGGTAAGAATAATAA [CACACA_site1582]	9.31
AAACCAAAAATAACACGTACAAAAATAAAAAGTATA [XGTACX_site4261]	9.84
AAAACATATTTTAAAAGTACTTGAAAAAAAATTTTC [XGTACX_site3940]	8.98

Sequence	gcPBM binding intensity (ln)
ATTATGCACGGACACACACACACACCCCTAAAAAAT [CACACA_site5426]	10.2
TGTTAACCACAAAAATAAAATAAAATAAAAATAATA [XGTACX_negctrl_site535]	9.24
TGATAAATATTATGTTGTACTTTCTGCCCTTCACAT [XGTACX_site5168]	9.39
TATGCTATTATATATGTACACACCAATTTATTTATA [CACACA_site3918]	9.56
TTTCCCATAGGAAAAACACACATATATTATAGATAA [CACACA_site7019]	9.24
GAGAGAGAAATATGCACACATAAGGGAAATAAATAA [CACACA_site1153]	9.57
TTTTGATGCTTTAAATGTACAAGGGTTCTTATGAAA [XGTACX_site831]	8.96
GAAAAAAAAAGTTAAGCACACACATGAATAAATAAT [CACACA_site8179]	9.84
TGTATATAATTTATATGTACATATATTTTATTTTGT [XGTACX_site1905]	9.27
AAAAAAAAAAAATAGAAAAAAAAATAAAATAAAAAA [CACACA_negctrl_site562]	9.15
GACTTTTTCATTTTTAGTACACATATATATTTCCCT [XGTACX_site3511]	9.82
AAAAAAAAAAAACATACACACACACTAATATTTATA [CACACA_site8038]	9.88
ATATATTTTTAATATGCACACAAGAATACATTCACA [CACACA_site914]	9.4
TTAAAAAATCACAACACACACACACCCAAAAAAAAA [CACACA_site1445]	9.88
TTTTAAAAAATATAATAATATAAATATTTTATACGT [TGCATGCA_negctrl_site252]	8.84
CATATATATATATGAACACACAAAAAGAATATTTCC [CACACA_site1493]	9.59
TCTATACCTATTCTTACACACATATGTATTTATATA [CACACA_site4475]	9.81
TTCTATGCATTTATAGTGCATGTAAAATATAAGATA [GTGCAC_site9466]	8.79
AATTATATTTAGTATATGCACACTTTATGTTTGTTA [CACACA_site2025]	9.42
GTAGAAAGAAAAATTAGTACTTAAATATTATAAAAA [XGTACX_site8458]	9.11
TTTAAAAAAAAAAAAAATTTTTTTTTTTTTTTTTTA [CACACA_negctrl_site1415]	8.52
TTTATATACTATCAACGTACAAAAGTAATAAAAATA [XGTACX_site4343]	9.03
